The supplement of paper PMC10126150
Sequences with one replicate were seen in a single cluster, so their values are uncertain.

Test system: ATP
Test: switch fluorescence ratio, 500 uM ATP over buffer (Cy3 cluster intensity, sum of 5 cycles each) (fold (ratio)); higher = stronger signal-on switching upon ATP binding; sequences stand for … in TCGTCGGCAGCGTCAGATGTGTATAAGAGACAGTTTTTTTTTTTTTTTTTTTTTTTTT…TC
Conditions: aptamer strand: ATP DNA aptamer (quencher-CACCTGGGGGAGTATTGCGGAGGAAGG + anchor), 100 nM annealed; ATP concentration: 500 uM; one replicate
Procedure, shortened: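 Values give the fluorescence ratio for each switch-domain sequence, averaged from per-cluster ratios of summed target-cycle to summed buffer-cycle Cy3 intensity. The Cy3-labelled switching-strand clusters sat on a modified Illumina MiSeq flow-cell, were annealed to 100 nM quencher-labelled ATP aptamer, and were imaged in selection buffer, then after 15 min with 500 uM ATP at 22 °C. Five cycles ran with NaOH stripping and re-annealing between them, and clusters outside 100-1000 RFU were excluded.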
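Further: ATP exposure 15 min at 22 °C before imaging.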

Sequence | switch fluorescence ratio
ATGCAAAATA | 1.04
GATGCTGTAA | 1.09
CGGGGCGACT | 1.03
AACCCTATAA | 1.11
ATAATGGGCT | 1
TACGAAACAT | 1.19
TAGGATCGG | 1.02
TATATTTGAG | 1.01
AATAATTGTT | 0.991
ATAAGTGTA | 1.01
CGGGGAAG | 0.987
CTAGGTAAGG | 0.978
TTAAGCAGTA | 1.01
GCGAAGTACA | 1.1
GGGACAGAAA | 1.09
GCGGTCAC | 1.49
GGCTGCGGCC | 0.998
GAGCGATGAC | 1.66
AATTCAGAGT | 0.947
GTAATTGGG | 1
TTCTCGGAAA | 0.999
TGATGGAATG | 1.02
CTGTACTTCA | 1.08
GCGAATACGA | 3.04
AGGACGTGGG | 1.01
TGCTTTCTTT | 0.951

Sequence | switch fluorescence ratio
AGCATGCACA | 1.04
TCGATAAAAC | 1.04
AAGGGTAGCT | 1.01
TAGTGGTGTG | 1.02
TTAAAAATTA | 1.02
TTCGAGTACG | 1.08
GAAGGAACTA | 1
TCCCGTCATT | 1.06
ACTGGTCCAC | 1.09
CCTGCGATAG | 4.75
CTCCTTACGT | 1.14
GCGTAGATTT | 1.03
TTTTGTCTGG | 1.06
TATTGCAGAG | 1.01
TACTCACATT | 1.27
AGACGAGCCT | 1.14
AGGCTGACTC | 1.1
AACGCCCAGC | 1.12
ATCGGGCTTA | 1.01
GACTTAAGTC | 1.02
GACCCCCGAT | 1.28
TCGTGAGGGT | 1.03
ACCGGCCAAG | 1.05
TTAACGATCT | 1.02
ACCAGTCTGT | 0.997
TTAGCCTAGG | 0.984

Sequence | switch fluorescence ratio
CCGAAGGGCA | 1.08
TTTGCGCTTA | 0.963
CGGGGCTT | 1.01
ATACCATCAC | 1.17
ATACGGGGGA | 0.991
TATGTAGG | 0.956
AAGCTCAGGG | 1.05
AAAGGTTTA | 1.01
GGAATAACGG | 1.09
CTTTAAAATG | 1.03
TATCGAAGAG | 1.04
AGCGCAGGGA | 1.03
TAATAGCGCT | 0.984
GGTTCCTCCT | 1.34
GTGTACTGTT | 0.936
ACCGACTAGA | 1.12
TGACCGTACA | 1.53
GAGAAAATG | 1.01
AAGTAAATAG | 2.08
TTGCTTATGC | 1.06
CGTGGAACAG | 1.04
TGGCATTTCA | 1.01
ATCCCTCAGA | 1.02
GGGGATTCTC | 0.962
TTGATCGAAT | 0.944
TTTGAGCTT | 0.997

Sequence | switch fluorescence ratio
AGAGCTTCG | 1.03
ATGCTGTCGG | 0.994
ACGCCAAGGG | 1.07
GAGTACACGC | 1.02
GTTTCAGATG | 1.01
TCAATGCACA | 1.07
AATGTGCACG | 1.02
CGGAGATTAT | 0.975
TCATCAGTCG | 1.01
CCGTCCCTAC | 4.63
ACTTCTACCT | 1.35
CTGTGAGAGA | 0.975
TGACATTCCT | 1.43
ATTCCAGAAT | 0.977
CGCGTCATCA | 0.979
GCTCCTAGGA | 1
GCACATGGGG | 1.11
TCTGTTGGTC | 1.55
TGGGACAAAT | 1
CCGCAGCCGT | 2.48
TGCGCTTACT | 1.92
GAGTCTTA | 0.997
TCGGTAAAG | 0.951
TACGGTTGC | 2.12
GAAATCCAAA | 0.993
TATATACGTA | 1.12

Sequence | switch fluorescence ratio
CAGTGAGTGC | 0.941
CGATCACATT | 0.991
CTTAGCATAC | 3.52
CGCCGTTCGC | 1.09
TTAGATAGGC | 0.931
TACTCAGATG | 1.06
CCTTAGTATG | 0.966
AACATCGCAT | 1.09
ACTGTTCATT | 1.05
AATGGGATTT | 0.967
ATACGGGAG | 1.01
GTGATAAGGG | 1.04
CCGGACGGCA | 1.07
AATGGGGTGA | 0.983
TCCAAGCCGC | 1.49
CATGCACTA | 1.13
CTTGCTTTGC | 0.994
GTCCGGATGC | 1.39
TACACTGCAT | 1.56
ATGTAGAAAC | 1.09
GTGCGGCAGA | 1.07
CATCAGCTTT | 2.76
GTGTTGTACT | 0.993
CTACTTTTAA | 0.948
CGAGGAGGTC | 1.03
GGATATATTT | 0.981

Sequence | switch fluorescence ratio
ACAGTGGAGG | 1.01
ATACTTTATA | 1.03
TAAGAAAACA | 1.04
CTCGGTTCTC | 1.07
TTTCTAAAA | 0.978
TTTGCAACGT | 1.04
GGTAGGTTAC | 1.04
AGCTTGTACA | 1
GCGAGGAGCC | 1.01
TTTGGCTGCG | 1.04
CAGCGATGGT | 1.11
AAGGCTGTTA | 0.981
ACGGGGACAG | 1.03
CCTAAAATGT | 1.01
AGAGCTAAAA | 0.996
ACCTGCGCGC | 1.17
GATATAGCGC | 0.974
CTATTACGTT | 1.11
AAATATTATT | 1
TTATAGGTGT | 1.11
ACAAGATCCA | 1.01
ACTTCATAGG | 1.1
GGATGTAACC | 1.03
CCTTGTGAAT | 1.04
ACACCTCGTC | 1.03
AGGTCAATGA | 1.01

Sequence | switch fluorescence ratio
GTTTAAGTCG | 0.97
GTCTCAAGTC | 0.997
GAGGCGTAAA | 0.982
TCAGGGAAAC | 1.98
GACCGCGCAA | 3.83
AAACTAGATA | 0.996
CGCTGGGTCT | 0.947
AACTAGCATA | 1.08
TGACTGCTGA | 1.02
CCAGGCGCGA | 2.43
GTCGCGTATC | 0.949
AGGTTGGGCG | 1
TGAACGGTAG | 1.02
TCCTTATCGT | 0.97
CGATCGTTCG | 1.03
GTAAACATAC | 0.917
TATAGCTGAA | 0.988
ATGCTCTACG | 0.972
ATAAAGATCA | 1.01
GAGTGCAGAC | 1.02
GTTTCGTTAT | 1.01
TTAGATTTCG | 1.07
ACGTGCCACG | 1.02
GCATCCTCAA | 1.8
TGCATCGTGG | 1.02
CTCAGTATAT | 1.08

Sequence | switch fluorescence ratio
CTTCGGCGAG | 1.04
TCGATATAGA | 0.939
TAGTGCGTGG | 1.02
ATCATAAACA | 1.03
CGTCCGGGCT | 1.03
CCGGATGATA | 1.06
AGTAATAGTG | 1.06
TAACTTAATT | 1.04
TTAAAATCGT | 1.02
GATCCTTGTT | 0.959
GAGGAGAGGG | 0.97
TGCACGAGAG | 1.01
GTGCAATAAT | 1.53
CGTAGAAAGC | 1
ACGTCTTACA | 1.12
GCAGTTTGGG | 1
TGTCTTGAAT | 1.03
CTTGAAAATT | 1.01
GGGACATGAG | 0.975
